The results in this text go back to publication PMC4336329 (PLoS ONE, 2015).

Hit rate of the full screen: of about 310,000 compounds, about 14,000 (4.5%) showed an effect of 50% or more. Effects have a minus sign here. This is one part of the list.
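Note: peak tail current of the secondary pulse compared with the same well before compound.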

human ether-à-go-go-related gene (hERG) potassium channel, sequence (Q12809 whole entry, looked up): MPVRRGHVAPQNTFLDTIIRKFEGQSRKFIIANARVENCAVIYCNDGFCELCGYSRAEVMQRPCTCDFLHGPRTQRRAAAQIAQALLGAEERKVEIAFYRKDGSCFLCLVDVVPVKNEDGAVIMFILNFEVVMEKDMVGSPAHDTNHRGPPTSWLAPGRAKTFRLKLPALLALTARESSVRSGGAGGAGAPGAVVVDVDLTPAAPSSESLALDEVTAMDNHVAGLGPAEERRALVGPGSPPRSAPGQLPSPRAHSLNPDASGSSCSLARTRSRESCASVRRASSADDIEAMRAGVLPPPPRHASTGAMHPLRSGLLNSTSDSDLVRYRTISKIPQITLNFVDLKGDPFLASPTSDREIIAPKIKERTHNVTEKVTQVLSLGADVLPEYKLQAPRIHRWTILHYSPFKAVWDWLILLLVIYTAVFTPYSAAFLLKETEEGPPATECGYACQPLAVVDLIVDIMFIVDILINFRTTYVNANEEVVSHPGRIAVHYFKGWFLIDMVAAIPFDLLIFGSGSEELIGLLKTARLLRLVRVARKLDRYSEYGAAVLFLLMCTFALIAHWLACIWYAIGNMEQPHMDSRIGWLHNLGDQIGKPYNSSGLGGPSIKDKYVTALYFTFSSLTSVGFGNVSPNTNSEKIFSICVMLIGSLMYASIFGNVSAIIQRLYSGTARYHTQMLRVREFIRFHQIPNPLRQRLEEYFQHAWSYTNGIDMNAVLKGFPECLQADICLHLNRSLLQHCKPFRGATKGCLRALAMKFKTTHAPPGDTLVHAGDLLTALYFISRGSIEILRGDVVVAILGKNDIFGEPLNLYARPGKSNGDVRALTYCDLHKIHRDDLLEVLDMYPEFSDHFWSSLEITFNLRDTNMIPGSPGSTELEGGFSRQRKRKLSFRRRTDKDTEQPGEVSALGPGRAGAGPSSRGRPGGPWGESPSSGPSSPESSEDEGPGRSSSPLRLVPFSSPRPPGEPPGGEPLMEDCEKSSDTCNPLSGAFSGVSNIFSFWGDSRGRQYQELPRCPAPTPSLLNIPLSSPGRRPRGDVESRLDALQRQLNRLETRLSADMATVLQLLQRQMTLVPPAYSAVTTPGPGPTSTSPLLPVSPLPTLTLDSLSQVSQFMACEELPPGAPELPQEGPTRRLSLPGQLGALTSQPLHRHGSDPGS

This assay addresses human ether-à-go-go-related gene (hERG) potassium channel (human, UniProt Q12809). As to the kind of experiment: primary screen, population patch clamp on CHO cells stably expressing hERG.
With `CS(=O)(=O)N1Cc2ccccc2CC1C(=O)OCC(=O)Nc1ccc2ccccc2c1` (centres unmarked), the “hERG current change (%, negative = inhibition) at 10uM” value was 7.36%. As to `CCCn1c(C(C)NC(C)=O)nc2ccccc21` (centres unmarked), the “hERG current change (%, negative = inhibition) at 10uM” value was determined as 8.97%. As for `C[C@H](NC(=O)c1ccccc1)C(=O)OCC(=O)c1c[nH]c2ccccc12`, the figure is -27.2%. As for `O=C(c1[nH]ncc1-c1ccc(Cl)cc1)C1CO1` (centres unmarked), the figure is 8.61%. As for `CC12CCC(C(=O)NC3CCCC3)(CC1=O)C2(C)C` (centres unmarked), the figure is 8.75%. Take `O=C1C2C3c4ccccc4C(c4ccccc43)C2C(=O)N1Cc1ccco1` (centres unmarked): the “hERG current change (%, negative = inhibition) at 10uM” value is recorded as 5.12%. Take `Cn1c(=O)n(C)c2cc([N+](=O)[O-])c(N3CCN(S(=O)(=O)c4ccccc4)CC3)cc21`: the “hERG current change (%, negative = inhibition) at 10uM” value is -8.67%. As for `O=C(CNC(=O)OCc1ccccc1)NCC(=O)Nc1ccc(Br)cc1C(=O)c1ccccc1`, the “hERG current change (%, negative = inhibition) at 10uM” value is given as -56%.

For `O=C(CCC(=O)N(CC(=O)NC1CCCC1)c1ccccc1F)Nc1nccs1`, the “hERG current change (%, negative = inhibition) at 10uM” value is reported as -14.3%. As for `Cc1ccc(C2CC(=O)C=C(NCC(C)C)C2)cc1` (centres unmarked), the figure is -1.28%; as for `NS(=O)(=O)c1ccc(CCNC(=O)CNC(=O)c2ccc(Br)o2)cc1`, 2.72%. On to `CCN(CC)C(=O)CSc1nnc(COc2ccc(OC)cc2)n1N`, for which the “hERG current change (%, negative = inhibition) at 10uM” value was 2.44%.

As to `O=C(Nc1ccccc1)c1ccc(OC(=O)c2ccccc2)cc1`, the “hERG current change (%, negative = inhibition) at 10uM” value worked out at 16.3%. For `CC1CCN(CC(=O)Nc2ccc(S(=O)(=O)N3CCC(C)CC3)cc2)CC1.Cl` the value was -42.8%; for `CCCN(CC(=O)Nc1ccccc1C)C(=O)c1ccc(S(=O)(=O)N2CCCC2)cc1`, -21.9%.

On to `COc1ccc(S(=O)(=O)N2CCN(Cc3c[nH]c4ccccc34)CC2)cc1`, for which the “hERG current change (%, negative = inhibition) at 10uM” value is -24.9%.

Turning to `CCOC(=O)C/C(C)=N/NC(=O)CN(c1ccc(Br)cc1)S(=O)(=O)c1ccccc1`, the “hERG current change (%, negative = inhibition) at 10uM” value is -0.597%. As for `CCS(=O)(=O)n1nc(-c2ccc(OC)cc2)nc1SC`, the figure is 0.538%; as for `O=C(CSc1ncn(-c2ccccc2)n1)Nc1ccc(Br)cn1`, -15.1%; as for `CCc1nc(Nc2ccc3nccnc3c2)c2oc3ccccc3c2n1.Cl`, 17.5%. Turning to `CC(OC(=O)c1ccc(-n2cnnn2)cc1)C(=O)NCc1ccccc1` (centres unmarked), the “hERG current change (%, negative = inhibition) at 10uM” value is recorded as -49.3%. For `COc1ccccc1NC(=O)/C=C/C(=O)O` the value was 8.06%; for `Cc1cccc(OCc2nnc(SCC(=O)N3CCN(C(=O)c4ccco4)CC3)n2C)c1C`, -34.2%; for `Cc1ccc(C2c3[nH]c4ccccc4c3C[C@H]3C(=O)N(c4ccccc4C(=O)N4CCC[C@H]4C(=O)O)C(=O)N23)cc1` (some centres unmarked), 11.4%. `CCOC(=O)[C@H]1[C@H]2COc3ccc(OC)cc3[C@@H]2N2C(=O)CN(Cc3ccc(C)cc3)C(=O)[C@@]12C`: the “hERG current change (%, negative = inhibition) at 10uM” value is -19.3%. Turning to `O=C(O)C1C(c2ccccc2)C(C(=O)Oc2ccccc2)C1c1ccccc1` (centres unmarked), the “hERG current change (%, negative = inhibition) at 10uM” value was 5.02%. For `O=C(C1CCC(CNS(=O)(=O)c2cccc3nsnc23)CC1)N1CCN(c2ccccn2)CC1` (centres unmarked) the value was -53.9%. Regarding `CSc1ccccc1C(=O)C1CCCN(S(=O)(=O)N(C)C)C1` (centres unmarked), the “hERG current change (%, negative = inhibition) at 10uM” value is recorded as -20.4%.

In the case of `C/C=C(\C)CN1CCCC(CO)(Cc2ccccc2)C1` (centres unmarked), the “hERG current change (%, negative = inhibition) at 10uM” value is listed as 10.4%. Take `COc1cc(/C=C/C(=O)OCC(=O)NC(=O)NC(C)(C)C)cc(OC)c1OC`: the “hERG current change (%, negative = inhibition) at 10uM” value is on record as 13.4%.

As for `Nc1cc(=O)[nH]c(N2CCN(c3ccccc3)CC2)n1`, the “hERG current change (%, negative = inhibition) at 10uM” value stood at 24.2%. For `CCCCOc1ccc(NC(=O)c2cnc(C)cn2)cc1` the value was -6.25%. Consider `O=C(NC1CCCCC1)C(c1ccccn1)N(C(=O)c1csnn1)c1ccccc1` (centres unmarked), for which the “hERG current change (%, negative = inhibition) at 10uM” value is on record as 1.6%.

With `Cc1cc(C)cc(NC(=O)CSc2cc(C(=O)c3nccn3C)c3ccccc3n2)c1`, the “hERG current change (%, negative = inhibition) at 10uM” value is reported as -3.45%. As for `COc1cccc(CNC(=O)CCC2CCCN(C(=O)c3ccoc3C)C2)c1` (centres unmarked), the figure is 5.6%; as for `N#C/C(=C/c1ccco1)c1nc2ccccc2s1`, 9.32%; as for `CC(=O)Nc1ccc(Br)c(Cl)c1`, 10.9%.

Consider `CCCCOc1ccc(C(=O)Nc2cccc(C)n2)cc1`, for which the “hERG current change (%, negative = inhibition) at 10uM” value was -12.2%. For `O=C(Nc1nnc(-c2ccncc2)o1)c1ccc2ccccc2c1` the value was -3.08%; for `CCCCCOC(=O)NCCOC(=O)Nc1ccc(C(=O)OCC)cc1`, 14%. As for `CS(=O)(=O)c1ccc(Cl)c(NC(=O)c2ccc3ccccc3c2)c1`, the figure is -7.15%.

On to `CCC(C)Nc1nc(-c2ccccn2)nc2ccccc12` (centres unmarked), for which the “hERG current change (%, negative = inhibition) at 10uM” value was -50.2%.

Turning to `Nc1nnc(CC(=O)N/N=C/c2ccc(-c3ccc(F)cc3)o2)s1`, the “hERG current change (%, negative = inhibition) at 10uM” value was found to be 4.34%. For the molecule `CCN(CC)S(=O)(=O)c1ccc(C(=O)NC2=NCCS2)cc1`, the “hERG current change (%, negative = inhibition) at 10uM” value was found to be 14.7%.
